Measurements as given in PubChem BioAssay AID1347120 (National Center for Advancing Translational Sciences (NCATS), 2019).
Among all 390,000 compounds or so, about 930 (0.24%) were called active. This list was built around the results that the source calls inconclusive (neither active nor inactive); the mix of calls is not that of the screen. The call rests on the fitted dose curve; in most records, active means well fitted activation curve with a large enough effect; inconclusive means small, poorly fitted or top-dose-only effect; inactive means no such curve, though single readings can be large or run the other way. Potencies beside an inconclusive call are fits to weak or partial responses and may not hold up.

Test: qHTS for Suppressors of FUS Proteinopathy: Primary screen using FUS-linked yeast assay; further: nearly all actives have a fitted effect of over 55% in size
Conditions: S. cerevisiae FUS-expressing, OD600, 24 h; Potency: growth rescue; series mostly up to 76.6 µM
Method in brief: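 Read-out: OD at 600 nm after 24hr at 30C, reporting rescue of FUS-induced yeast toxicity. Cells at OD 0.005 in galactose (2%) minimal medium; compounds tested in a dilution series; CP55940 titration from 92uM final as control.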
Potency means the concentration at half of the fitted maximal effect; tags describe the fitted curve by direction and shape.

Row | SMILES | Potency
1 | CC(Oc1ccc(Cl)cc1Cl)C(=O)Nc1ccc(N2CCN(C)CC2)cc1 (centres undefined) | inactive
2 | CCCCOCCCNC(=O)C[C@@H]1C(=O)N(Cc2ccc(OC)cc2)/C2=C/CCCCC[C@@]21C(=O)OCC | inconclusive: 8.91 µM [activator, partial curve, poor fit]
3 | O=C(O)c1cc(-c2ccco2)nn1-c1ccc(Cl)cc1 | inconclusive: 25.1 µM [activator, single point]
4 | Cc1noc(C)c1S(=O)(=O)NC(=O)C1(C)CCN1C(=O)Cc1ccc(-c2ccccc2)cc1 (centres undefined) | inconclusive: 50.1 µM [activator, partial curve, poor fit]
5 | CCC(C(=O)Nc1ccccc1N1CCCC1)c1ccccc1Cl (centres undefined) | inactive
6 | O=C(c1ccc(C(F)(F)F)cc1)N1CCC(=O)N([C@H](COCc2ccccc2)Cc2ccccc2)CC1 | inconclusive: 50.1 µM [activator, single point]
7 | O=C(C1CCCCC1)N(Cc1nc2sc3c(c2c(=O)[nH]1)CCCC3)Cc1cccs1 | inactive
8 | O=C1c2ccccc2N2C(=O)c3ccccc3C2N1O (centres undefined) | inactive
9 | CC(C)(C#N)Nn1cnnc1 | active: 15.8 µM
10 | Cc1cccc(Nc2ncnc3onc(-c4ccc(F)cc4)c23)c1C | inconclusive: 39.8 µM [activator, partial curve, poor fit]
11 | Nn1c(SCc2cccc(C(F)(F)F)c2)nnc1-c1ccco1 | inactive
12 | COC(=O)[C@]12C[C@H](CC(=O)N3CCN(C(=O)c4ccco4)CC3)C(=O)N(CCc3ccc(OC)c(OC)c3)C1=C[C@H](C(C)C)O[C@@H]2C1CC1 | inactive
13 | CC(C)OC(=O)C1=CNCC(C)(C)c2c1[nH]c1cc(F)ccc21 | inactive
14 | CCc1ccc(NC(=O)CCn2nc(C)c(S(=O)(=O)N3CCCCC3)c2C)cc1 | inconclusive: 10 µM [activator, single point]
15 | COc1ccc(Cl)cc1C1=NOC2(CCC2)C(=O)N1Cc1cccc(C#N)c1 | inconclusive: 50.1 µM [activator, single point]
16 | Cc1cc(Cl)n2nc(C)c(-c3ccc(Cl)cc3)c2n1 | inactive
17 | Cc1ccc(NC(=O)C(Cc2ccccc2)NS(=O)(=O)c2ccc3c(c2)oc(=O)n3C)cc1F (centres undefined) | inactive
18 | O=C(Nc1nc2n(n1)C(c1ccc(F)cc1)C=C(c1ccccc1)N2)c1ccc(Cl)cc1 (centres undefined) | inconclusive: 50.1 µM [activator, single point]
19 | Cc1ccc(S(=O)(=O)N2C[C@H]3C(=O)C[C@@H](c4cccs4)N(S(=O)(=O)c4ccc(C)cc4)[C@H]3C[C@H]2c2ccccc2)cc1 | inconclusive: 28.2 µM [activator, partial curve, poor fit]
